Several values for one entry are separate records, joined by “and”; a condition that tells them apart may be missing. Equal values may be shown once. This list was built around the results that the source calls inconclusive (neither active nor inactive); the mix of calls is not that of the screen. For part of these data: Potencies beside an inconclusive call are fits to weak or partial responses and may not hold up. The source holds several records for some structures; these can differ, active in one and inactive in another. Activity calls are given as the source filed them. Unless noted, calls come from the whole dose curve; as a rule, active = well fitted curve in the direction sought with a large enough effect in the repeat runs; inconclusive = weak or mixed curves; inactive = no such curve, though single readings can be large; an effect the other way counts as inactive or inconclusive.
What was measured:
[1] = target: Thyrotropin receptor (Homo sapiens) (UniProt P16473); experiment: qHTS assay to identify small molecule antagonists of the thyroid stimulating hormone receptor (TSHR) signaling pathway (AID 1259385; calls by dose curve; note: nearly all actives have a fitted effect of over 20% in size; note: potency is the fitted concentration of half-maximal effect); details: TSHR-HEK293 cAMP HTRF, TSH-stimulated antagonist mode; activity change, negative = inhibition: at 92.4 µM (top of the series) unless noted
UniProt P16473, sequence (P16473 whole entry, looked up): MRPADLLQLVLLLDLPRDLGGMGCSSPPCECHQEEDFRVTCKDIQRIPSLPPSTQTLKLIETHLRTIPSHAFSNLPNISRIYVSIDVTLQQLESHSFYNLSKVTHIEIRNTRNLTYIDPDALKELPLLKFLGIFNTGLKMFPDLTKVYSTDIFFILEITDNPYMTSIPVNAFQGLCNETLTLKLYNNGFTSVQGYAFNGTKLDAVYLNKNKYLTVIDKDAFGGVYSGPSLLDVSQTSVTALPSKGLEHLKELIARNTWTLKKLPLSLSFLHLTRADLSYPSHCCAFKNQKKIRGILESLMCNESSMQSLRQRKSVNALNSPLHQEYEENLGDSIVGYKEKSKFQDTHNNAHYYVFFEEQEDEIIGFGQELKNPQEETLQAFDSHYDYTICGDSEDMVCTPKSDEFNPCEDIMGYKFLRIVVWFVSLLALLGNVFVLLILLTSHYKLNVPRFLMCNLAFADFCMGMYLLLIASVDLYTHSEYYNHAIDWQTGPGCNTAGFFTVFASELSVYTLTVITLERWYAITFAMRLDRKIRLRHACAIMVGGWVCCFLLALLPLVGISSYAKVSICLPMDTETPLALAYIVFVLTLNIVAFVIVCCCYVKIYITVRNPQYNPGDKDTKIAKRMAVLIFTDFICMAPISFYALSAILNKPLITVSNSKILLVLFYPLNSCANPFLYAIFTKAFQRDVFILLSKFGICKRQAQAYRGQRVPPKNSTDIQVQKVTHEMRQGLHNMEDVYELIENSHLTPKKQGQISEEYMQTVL
Procedure, shortened: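 TSHR-HEK293 cells (800/well) plated 18 h, then compounds with Ro20-1724 and TSH at 1.5 ng/mL final, 30 min at room temperature. cAMP quantified by HTRF (cAMP-d2/anti-cAMP-cryptate, 1 h); 15 concentrations in triplicate.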

[2] = target: Progesterone receptor (Homo sapiens) (UniProt P06401); experiment: qHTS assay to identify small molecule agonists of the progesterone receptor (PR) signaling pathway (AID 1346784; calls by dose curve; note: nearly all actives have a fitted effect of over 30% in size); details: PR-UAS-bla HEK293T, beta-lactamase FRET ratio, 16 h; activation: at 92.4 µM (top of the series) unless noted
UniProt P06401, sequence (P06401 whole entry, looked up): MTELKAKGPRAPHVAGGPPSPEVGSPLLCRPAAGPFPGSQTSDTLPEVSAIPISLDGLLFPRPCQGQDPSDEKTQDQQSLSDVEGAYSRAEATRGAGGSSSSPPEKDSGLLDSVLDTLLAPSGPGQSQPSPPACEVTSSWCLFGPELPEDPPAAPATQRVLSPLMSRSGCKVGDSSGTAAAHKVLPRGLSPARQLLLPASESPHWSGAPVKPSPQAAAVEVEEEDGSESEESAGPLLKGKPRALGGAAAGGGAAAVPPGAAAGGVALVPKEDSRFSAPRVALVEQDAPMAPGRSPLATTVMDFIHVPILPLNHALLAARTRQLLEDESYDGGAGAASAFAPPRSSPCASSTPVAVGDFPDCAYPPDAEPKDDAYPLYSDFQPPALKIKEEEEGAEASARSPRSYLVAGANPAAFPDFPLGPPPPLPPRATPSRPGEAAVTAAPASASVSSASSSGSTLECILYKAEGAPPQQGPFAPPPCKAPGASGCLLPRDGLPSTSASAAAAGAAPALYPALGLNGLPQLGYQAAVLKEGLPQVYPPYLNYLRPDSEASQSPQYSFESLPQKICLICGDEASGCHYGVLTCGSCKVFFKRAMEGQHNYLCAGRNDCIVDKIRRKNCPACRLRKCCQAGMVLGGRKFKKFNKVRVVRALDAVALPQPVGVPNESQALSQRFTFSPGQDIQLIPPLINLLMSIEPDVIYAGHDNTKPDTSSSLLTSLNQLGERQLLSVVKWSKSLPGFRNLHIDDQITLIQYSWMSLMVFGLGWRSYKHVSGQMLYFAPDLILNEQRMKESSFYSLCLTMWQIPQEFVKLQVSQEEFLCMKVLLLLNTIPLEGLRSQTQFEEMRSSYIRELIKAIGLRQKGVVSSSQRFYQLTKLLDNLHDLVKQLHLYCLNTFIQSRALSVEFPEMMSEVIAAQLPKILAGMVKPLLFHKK
Procedure, shortened: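 Seed PR-UAS-bla HEK 293T cells (2% charcoal-stripped FBS), incubate 6 hr at 37C; add compounds in DMSO, 16 hr at 37C; add LiveBLAzer B/G substrate, 2 hr RT; read fluorescence intensity.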

[3] = target: Progesterone receptor (Homo sapiens) (UniProt P06401); experiment: qHTS assay to identify small molecule antagonists of the progesterone receptor (PR) signaling pathway (AID 1346795; active = well fitted inhibition curve with a large enough effect in the signal ratio in the repeat runs, not every such curve was filed as active; inconclusive = weak or mixed curves; the % refers to the signal ratio; note: potency is the fitted concentration of half-maximal effect); details: PR-UAS-bla HEK293T, beta-lactamase FRET ratio, 16 h; activity change, negative = inhibition: at 92.4 µM (top of the series) unless noted
Procedure, shortened: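 Screening used a GripTite HEK293T line with PR-responsive UAS-beta-lactamase. Cells were challenged with compound in the presence of 1 nM R5020 final for 16 hr at 37C; B/G FRET substrate, 2 hr room temperature, fluorescence.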

[4] = qHTS assay to identify small molecule agonists of the estrogen receptor alpha (ER-alpha) signaling pathway in the presence of an antagonist - cell viability counter screen (AID 1259386);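 note: cells exposed to compounds for 22 h at 37 °C before the viability read; nearly all actives have a fitted effect of over 30% in size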; note: potency is the fitted concentration of half-maximal effect
Procedure, shortened: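 Read-out: CellTiter-Fluor fluorescence after 1hr reagent incubation, measured in the same wells as the luciferase readout. VM7Luc4E2 cells were exposed to 15 compound concentrations with 10.0nM ICI-182,780 for 22hr at 37C.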

[5] = qHTS assay to identify small molecule antagonists of the progesterone receptor (PR) signaling pathway - cell viability counter screen (AID 1346798); note: nearly all actives have a fitted effect of over 50% in size; note: potency is the fitted concentration of half-maximal effect
Procedure, shortened: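 Measures cytotoxicity in parallel with the PR antagonist reporter read: HEK293T PR-UAS-bla cells get compound and R5020 for 16 hr, and remaining viable cells are quantified by CellTiter-Glo luminescence.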

[6] = qHTS assay to identify small molecule agonists of the progesterone receptor (PR) signaling pathway - cell viability counter screen (AID 1346799; calls by dose curve; note: nearly all actives have a fitted effect of over 45% in size; note: potency is the fitted concentration of half-maximal effect)
Procedure, shortened: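 Using the same plates as the PR reporter screen, HEK293T PR-UAS-bla cells received compounds for 16 hr at 37C and were then lysed with CellTiter-Glo; luminescence was read 30 min later at room temperature.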

[7] = qHTS assay to identify small molecule antagonists of the TGF-beta/Smad signaling pathway - cell viability counter screen (AID 1346824); note: nearly all actives have a fitted effect of over 50% in size
Procedure, shortened: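 SBE-bla HEK 293T cells, incubated overnight, then compound plus 0.25 ng/mL TGF-beta1 (stock added) for 5 hr at 37 C. Viability was read in the same wells by CellTiter-Glo luminescence after 30 min at room temperature.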

[8] = qHTS assay to identify small molecule agonists of the TGF-beta/Smad signaling pathway - cell viability counter screen (AID 1346829); note: top concentration of the series differs between compounds; nearly all actives have a fitted effect of over 45% in size
Procedure, shortened: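 After overnight seating at 37 C and 5% CO2, reporter cells got compounds for 5 hr and FRET substrate for 2 hr; cell viability then came from CellTiter-Glo luminescence.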
% is set by controls: 0 for no effect and ±100 for the full control effect; tags give direction and shape of the fitted curve.

## C[C@@H]1C[C@H]2[C@@H]3CCC4=CC(=O)C=C[C@]4(C)[C@@]3(F)[C@@H](O)C[C@]2(C)[C@@]1(O)C(=O)COC(=O)c1ccncc1
[1]
  activity change, negative = inhibition: inconclusive: -12.5% [at 42.5 µM]
[2]
  activation: inconclusive: 46.8% [at 42.5 µM]
[3]
  activity change, negative = inhibition: inconclusive: -27.8% [at 42.5 µM]

## C=CCOC(=O)c1ccc(C(=O)OCC=C)c(C(=O)OCC=C)c1
[1]
  Potency: inconclusive: 611 nM [falling, single point]
[3]
  activity change, negative = inhibition: inconclusive: -35.7%

## CC(=O)CCc1ccc(OC(C)=O)cc1
[4]
  Potency: inactive

## NCCOCCN
[1]
  Potency: inactive
[3]
  Potency: inactive
[5]
  Potency: inconclusive: 0.611 µM [cytotoxic, single point]
[6]
  Potency: inactive

## CC(=O)OC(C)(C)C
[4]
  Potency: inactive

## NNc1nncc2ccccc12
[4]
  Potency: inconclusive: 34.4 µM [cytotoxic, full curve]
[3]
  Potency: active: 61.1 µM
[5]
  Potency: inconclusive: 68.6 µM [cytotoxic, partial curve, poor fit]
[6]
  Potency: inconclusive: 24.3 µM [rising, single point]

## CCCCCC(=O)OCCc1ccccc1
[1]
  activity change, negative = inhibition: inconclusive: -8.11%
[5]
  Potency: inactive

## CCCCOCCOCCOCCCC
[1]
  Potency: inactive
[6]
  Potency: inactive

## CN1C(=O)c2ccc([N+](=O)[O-])cc2C1=O
[4]
  Potency: inactive
[5]
  Potency: inactive

## Nc1ccccc1[N+](=O)[O-]
[1]
  Potency: inconclusive: 1.38 µM [falling, single point] and inconclusive: 2.43 µM [falling, single point]
[5]
  Potency: inactive
[7]
  Potency: inactive
[8]
  Potency: inactive

## O=C(OCCOCCOC(=O)c1ccccc1)c1ccccc1
[1]
  activity change, negative = inhibition: inconclusive: -12.6%
[6]
  Potency: inconclusive: 6.09 µM [cytotoxic, single point]

— PubChem BioAssay (Tox21)
